The whole screen tested about 3,200 compounds, of which about 75 (2%) showed an effect of 50% or more. This is one part of the list.
Tested on: T1, S. aureus MSSA476
T1 construct: MSSA476
Design: species or system S. aureus MSSA476 (TSB) or V. cholerae SAD30 (LB); 384-well bacterial growth screen at 25 uM, OD600 relative to DMSO control
Settings: relative growth, OD600, TSB; 25 µM; inhibitor

Structure (SMILES) | % of control remaining [%]
O=C(CCl)Nc1ccc(N=Nc2ccccc2)cc1 [4-C11, 2-chloro-N-[4-(2-phenyldiazen-1-yl)phenyl]acetamide] | 86.5174
C=CC(=O)N(Cc1ccc(=O)n(C)c1)C1CCCc2ccccc21 (stereo not drawn) [1-B17, N-[(1-methyl-6-oxo-1,6-dihydropyridin-3-yl)methyl]-N-(1,2,3,4-tetrahydronaphthalen-1-yl)prop-2-enamide] | 111.824
COC(=O)c1cc(C(=O)CCl)c(C)o1 [10-G13, methyl 4-(2-chloroacetyl)-5-methylfuran-2-carboxylate] | 140.625
C=CC(=O)NCCCn1cnc2c1CCCC2 [3-K20, N-[3-(4,5,6,7-tetrahydro-1H-1,3-benzodiazol-1-yl)propyl]prop-2-enamide] | 90.2046
C=CC(=O)N1CCC(C(=O)N[C@@H]2C[C@H]2c2ccc(Cl)c(F)c2)CC1 [3-B14, N-[(1R,2S)-2-(4-chloro-3-fluorophenyl)cyclopropyl]-1-(prop-2-enoyl)piperidine-4-carboxamide] | 112.843
CC(Cl)C(=O)N1CCCC(CC(=O)OC(C)(C)C)CC1 (stereo not drawn) [6-P18, tert-butyl 2-[1-(2-chloropropanoyl)azepan-4-yl]acetate] | 93.561
C=CC(=O)NCC1CCOC1 (stereo not drawn) [1-H08, N-[(oxolan-3-yl)methyl]prop-2-enamide] | 109.714
O=C(CCl)Nc1ccccc1OC(F)F [4-N09, 2-chloro-N-[2-(difluoromethoxy)phenyl]acetamide] | 91.8533
CCOC(=O)c1c(C)[nH]c(C(=O)CCl)c1C [10-J20, ethyl 5-(2-chloroacetyl)-2,4-dimethyl-1H-pyrrole-3-carboxylate] | 109.375
N#CC(C(=O)CCl)=C1Nc2ccccc2S1 [10-J04, 4-chloro-2-(2,3-dihydro-1,3-benzothiazol-2-ylidene)-3-oxobutanenitrile] | 43.75
Cc1ccc(NC(=O)N2CCN(C(=O)C=CCN(C)C)CC2)cc1 [10-H16, 4-[4-(dimethylamino)but-2-enoyl]-N-(4-methylphenyl)piperazine-1-carboxamide] | 125
C=CC(=O)NCCC(=O)N1CCN(c2nc(C)cs2)CC1 [3-F07, N-{3-[4-(4-methyl-1,3-thiazol-2-yl)piperazin-1-yl]-3-oxopropyl}prop-2-enamide] | 94.7323
CCC(C)n1nccc1NC(=O)C(C)Cl (stereo not drawn) [6-A20, N-[1-(butan-2-yl)-1H-pyrazol-5-yl]-2-chloropropanamide] | 96.2927
CC(Cl)C(=O)N(C(C)CS(C)(=O)=O)C1CC1 (stereo not drawn) [6-L17, 2-chloro-N-cyclopropyl-N-(1-methanesulfonylpropan-2-yl)propanamide] | 88.439
C=CC(=O)N1CCC(C(=O)Nc2[nH]nc(C(F)(F)F)c2C)CC1 [1-O04, N-[4-methyl-3-(trifluoromethyl)-1H-pyrazol-5-yl]-1-(prop-2-enoyl)piperidine-4-carboxamide] | 87.2088
O=C(CCl)NCC(=O)Nc1ccc(F)c(F)c1F [4-D18, 2-chloro-N-{[(2,3,4-trifluorophenyl)carbamoyl]methyl}acetamide] | 93.7589
Cc1cc(-n2c(C)cc(C=C(C#N)C(=O)NC3CCCC3)c2C)no1 [9-J15, 2-cyano-N-cyclopentyl-3-[2,5-dimethyl-1-(5-methyl-1,2-oxazol-3-yl)-1H-pyrrol-3-yl]prop-2-enamide] | 97.0787
O=C(CCl)c1c(-c2ccc(F)cc2)[nH]c2ccccc12 [10-P04, 2-chloro-1-[2-(4-fluorophenyl)-1H-indol-3-yl]ethan-1-one] | 137.813
CCOc1cc(C=C(C#N)C(=O)Nc2cccc(C)c2)ccc1O [9-G06, 2-cyano-3-(3-ethoxy-4-hydroxyphenyl)-N-(3-methylphenyl)prop-2-enamide] | 106.367
N#CC(=Cc1ccc(N2CCOCC2)cc1)C(=O)Nc1ccccc1F [9-B03, 2-cyano-N-(2-fluorophenyl)-3-[4-(morpholin-4-yl)phenyl]prop-2-enamide] | 95.2809
C=CC(=O)NC(C)c1nnnn1C (stereo not drawn) [3-A15, N-[1-(1-methyl-1H-1,2,3,4-tetrazol-5-yl)ethyl]prop-2-enamide] | 136.526
C=CC(=O)N1CCC(Cn2cnnc2)CC1 [3-P09, 1-{4-[(4H-1,2,4-triazol-4-yl)methyl]piperidin-1-yl}prop-2-en-1-one] | 96.4737
CC(Cl)C(=O)N[C@H](CC(N)=O)c1cccc(Cl)c1 (stereo partly drawn) [7-O09, (3R)-3-(3-chlorophenyl)-3-(2-chloropropanamido)propanamide] | 115.542

Structure (SMILES) | % of control remaining [%]
C=CCNC(=O)C(C#N)=Cc1c(C)nn(-c2ccc(F)cc2)c1Cl [9-L07, 3-[5-chloro-1-(4-fluorophenyl)-3-methyl-1H-pyrazol-4-yl]-2-cyano-N-(prop-2-en-1-yl)prop-2-enamide] | 88.0899
O=C(CCl)NCc1cc([N+](=O)[O-])ccc1O [4-A05, 2-chloro-N-[(2-hydroxy-5-nitrophenyl)methyl]acetamide] | 92.6155
CC(Cl)C(=O)NC1(c2noc(C(F)F)n2)CCC1 (stereo not drawn) [6-B15, 2-chloro-N-{1-[5-(difluoromethyl)-1,2,4-oxadiazol-3-yl]cyclobutyl}propanamide] | 91.5122
CC(Cl)C(=O)NC(=O)NCc1cccs1 (stereo not drawn) [6-E05, 3-(2-chloropropanoyl)-1-[(thiophen-2-yl)methyl]urea] | 104.488
O=C(CCl)NC(c1cc(F)ccc1F)C(F)F (stereo not drawn) [7-F22, 2-chloro-N-[1-(2,5-difluorophenyl)-2,2-difluoroethyl]acetamide] | 96.3893
O=C(CCl)NCC1CCN(C(=O)Cc2ccccc2)C1 (stereo not drawn) [7-B08, 2-chloro-N-{[1-(2-phenylacetyl)pyrrolidin-3-yl]methyl}acetamide] | 91.6797
Cc1ccccc1CC(C)NC(=O)CCl (stereo not drawn) [6-C06, 2-chloro-N-[1-(2-methylphenyl)propan-2-yl]acetamide] | 88.0976
C=CC(=O)N1CC(C)OC2(CCOCC2)C1 (stereo not drawn) [3-I12, 1-{2-methyl-1,9-dioxa-4-azaspiro[5.5]undecan-4-yl}prop-2-en-1-one] | 105.529
C=CC(=O)N1CCC(C(=O)N2CCCCCC2c2ccco2)CC1 (stereo not drawn) [2-N20, 1-{4-[2-(furan-2-yl)azepane-1-carbonyl]piperidin-1-yl}prop-2-en-1-one] | 102.35
O=C(CCl)NCC1CN(Cc2ccccc2)CCO1 (stereo not drawn) [4-H18, N-[(4-benzylmorpholin-2-yl)methyl]-2-chloroacetamide] | 112.816
CC(C)NC(=O)C(C#N)=Cc1ccc(Cl)cc1 [9-C09, 3-(4-chlorophenyl)-2-cyano-N-(propan-2-yl)prop-2-enamide] | 87.7903
C=CC(=O)Nc1cc(C(C)(C)C)nn1-c1ncccn1 [1-E04, N-[3-tert-butyl-1-(pyrimidin-2-yl)-1H-pyrazol-5-yl]prop-2-enamide] | 115.341
N#CC(=Cc1ccc(F)c(F)c1)C(=O)NC1CC1 [9-M06, 2-cyano-N-cyclopropyl-3-(3,4-difluorophenyl)prop-2-enamide] | 129.139
Cc1nc(C)n(C2CCCN(C(=O)C(C)Cl)C2)n1 (stereo not drawn) [7-P13, 2-chloro-1-[3-(3,5-dimethyl-1H-1,2,4-triazol-1-yl)piperidin-1-yl]propan-1-one] | 97.0173
CCNC(=O)C(C#N)=Cc1c(N2CCOCC2)nc2ccccn2c1=O [9-O06, 2-cyano-N-ethyl-3-[2-(morpholin-4-yl)-4-oxo-4H-pyrido[1,2-a]pyrimidin-3-yl]prop-2-enamide] | 97.0787
Cn1c(N)c(C(=O)CCl)c(=O)n(C)c1=O [10-E14, 6-amino-5-(2-chloroacetyl)-1,3-dimethyl-1,2,3,4-tetrahydropyrimidine-2,4-dione] | 101.875
CCC1SC(=C(C#N)C(=O)NC)N(c2ccc(Cl)cc2)C1=O (stereo not drawn) [8-L15, 2-[3-(4-chlorophenyl)-5-ethyl-4-oxo-1,3-thiazolidin-2-ylidene]-2-cyano-N-methylacetamide] | 125.477
CC(Cl)C(=O)NC(=O)NC12CC3CC(CC(C3)C1)C2 (stereo not drawn) [6-D10, 1-(adamantan-1-yl)-3-(2-chloropropanoyl)urea] | 94.9268
O=C(CCl)N(CC1=CCSC1)c1ccccc1 [4-F11, 2-chloro-N-[(2,5-dihydrothiophen-3-yl)methyl]-N-phenylacetamide] | 111.672
Cc1ccoc1C=C(C#N)C(=O)NCCc1ccccc1 [9-N03, 2-cyano-3-(3-methylfuran-2-yl)-N-(2-phenylethyl)prop-2-enamide] | 109.663
C=CC(=O)NC1CN(C(C)=O)C1 [1-N22, N-(1-acetylazetidin-3-yl)prop-2-enamide] | 127.297
C=CC(=O)NCCc1nnc(C)s1 [3-G22, N-[2-(5-methyl-1,3,4-thiadiazol-2-yl)ethyl]prop-2-enamide] | 111.45
